Broadly, the GI50 is the concentration giving 50% growth inhibition.

Experiment in all cases: cells
Assay [1] deals with H1993 (lung cancer cells). To be noted: Homo sapiens, NCI-H1993, 72 h, read-out: H1993CP GI50 (μM).
The test system of assay [2] is Hs746T (stomach cancer cells). To be noted: Homo sapiens, 72 h, read-out: Hs746TCP GI50 (μM).
Assay [3] relates to H2228 (lung cancer cells). To be noted: Homo sapiens, NCI-H2228, 72 h, read-out: H2228CP GI50 (μM).
Assay [4] relates to H3122 (lung cancer cells). The following applies: Homo sapiens, NCI-H3122, 72 h, read-out: H3122CP GI50 (μM).

For `CCCOc1cc(N2CCN(C(C)=O)CC2)ccc1Nc1nc(Nc2ccc(N3CCN(C(C)=O)CC3)cc2OC)ncc1Cl` [Example 2, 1-(4-(4-(2-(4-(4-acetylpiperazin-1-yl)-2-methoxyphenylamino)-5-chloropyrimidin-4-ylamino)-3-propoxyphenyl)piperazin-1-yl)ethanone], the GI50 in assay [1] came out at 7.25 µM; in assay [2], 2.86 µM; in assay [3], 1.42 µM; in assay [4] it was 0.874 µM.
The corresponding values for `COc1cc(N2CCN(C(=O)CO)CC2)ccc1Nc1ncc(Cl)c(Nc2ccc(N3CCN(C(C)=O)CC3)cc2OC)n1` [Example 83, 1-(4-(4-((4-((4-(4-acetylpiperazin-1-yl)-2-methoxyphenyl)amino)-5-chloropyrimidin-2-yl)amino)-3-methoxyphenyl)piperazin-1-yl)-2-hydroxyethanone] are more than 10 µM, 0.67 µM, 0.064 µM and 0.0008 µM.
Turning to `CCOc1cc(N2CCN(C(C)=O)CC2)ccc1Nc1nc(Nc2ccc(N3CCN(C(C)=O)CC3)cc2)ncc1Cl` [Example 6, 1-(4-(4-(4-(4-(4-acetylpiperazin-1-yl)-2-ethoxyphenylamino)-5-chloropyrimidin-2-ylamino)phenyl)piperazin-1-yl)ethanone], the GI50 in assay [1] was determined as 0.93 µM; in assay [2], 0.9 µM; in assay [3] it was 0.36 µM; in assay [4], 0.22 µM.

Values taken from patent US9199944B2 (priority 2012, dated 2015).
